{"source": "ChEMBL document CHEMBL4888484", "about": "“Replenishing the malaria drug discovery pipeline: Screening and hit evaluation of the MMV Hit Generation Library 1 (HGL1) against asexual blood stage Plasmodium falciparum ,using a nano luciferase reporter read-out” (2022)", "note": "Hit rate of the full screen: of about 150,000 compounds, about 540 (0.36%) showed an effect of 50% or more. This is one part of the list."}
{"system": "Plasmodium falciparum", "assay": "Primary screen in NF54 nanoGlo assay, in single point, at 2uM, 72h; a lower Z score goes with more inhibition", "format": "functional, Erythrocyte", "conditions": "timepoint 72 hour", "units": {"% Inhibition": "%"}}
{"smiles": "COc1cccc(F)c1-c1c(-c2ccccc2)ncn1Cc1ncc[nH]1", "% Inhibition": 8, "Z score": -1.28}
{"smiles": "O=C(Cc1c(Cl)cccc1Cl)N1CCC(OC2CNC2)CC1", "% Inhibition": -6, "Z score": 0.81}
{"smiles": "Cc1ccc(-c2cc(-c3ccc(C)cc3)n(-c3nc(-c4ccccc4)cs3)n2)cc1", "% Inhibition": -8, "Z score": 1.52}
{"smiles": "CN(C[C@]1(O)CCc2ccccc21)C(=O)c1ccc(S(C)(=O)=O)o1", "% Inhibition": -5, "Z score": 0.69}
{"smiles": "Cc1nc[nH]c1CN1C[C@H]2CC[C@@H](C1)N(C(=O)c1scc3c1CCCC3)C2", "% Inhibition": 2, "Z score": -0.28}
{"smiles": "COC[C@H](NCCc1cc(F)cc2c1OCOC2)C1CC1", "% Inhibition": 63, "Z score": -8.98}
{"smiles": "CC(=O)NC(C)(C)C[C@H](C)N1CC(c2ccncc2)C1", "% Inhibition": -3, "Z score": 0.36}
{"smiles": "Brc1cncc(-c2nccn2Cc2nccs2)c1", "% Inhibition": -9, "Z score": 0.9}
{"smiles": "Cc1nc(CN2CC[C@H](NC(=O)c3ccc[nH]3)[C@@H](O)C2)cs1", "% Inhibition": -16, "Z score": 1.73}
{"smiles": "C[C@@H](CNC(=O)C1CCCC1)NC(=O)C1CCCC1", "% Inhibition": 8, "Z score": -1.04}
{"smiles": "CCC(CC)N(Cc1ccc2c(c1)OCO2)C(=O)Cn1ccnc1", "% Inhibition": -2, "Z score": 0.27}
{"smiles": "COC(=O)c1ccc2oc(-c3ccc(-c4nc5cc(C(=O)OC)ccc5o4)c4ccccc34)nc2c1", "% Inhibition": -7, "Z score": 0.89}
{"smiles": "Cc1cccc(CNC(=O)c2ccc(C)nc2C2CCN(Cc3cccc(Cl)c3)CC2)c1", "% Inhibition": 1, "Z score": -0.18}
{"smiles": "C[C@H](NC(=O)[C@H]1CC[C@H](Cn2cnc3ccccc3c2=O)CC1)C(=O)O", "% Inhibition": -8, "Z score": 1.09}
{"smiles": "Cc1cc(NC(=O)COc2ccccc2C(=O)N2CCCCC2)no1", "% Inhibition": -4, "Z score": 0.9}
{"smiles": "CC1CN(C(=O)C2Cc3ccccc3O2)CCN1", "note": "(centres undefined)", "% Inhibition": 0, "Z score": 0.03}
{"smiles": "Cc1sc2ncnc(OCC(=O)N3CCCC3)c2c1C", "% Inhibition": -3, "Z score": 0.58}
{"smiles": "COc1ccc(OC)c(C2CCCN2CC(O)c2ccccc2)c1", "note": "(centres undefined)", "% Inhibition": -7, "Z score": 1.16}
{"smiles": "COCCN(CCC#N)C(=O)Nc1nc(C)cs1", "% Inhibition": -2, "Z score": 0.29}
{"smiles": "Cc1cc(C(=O)NCc2cc3n(n2)CCCC3)ns1", "% Inhibition": -13, "Z score": 1.73}
{"smiles": "O=C(Cn1cc(-c2ccccc2)ncc1=O)N1CCO[C@H](c2ccccc2)C1", "% Inhibition": -10, "Z score": 1.28}
{"smiles": "CC(C)c1scnc1C(=O)N(C)CCN1C[C@@H](C)O[C@@H](C)C1", "% Inhibition": -5, "Z score": 0.72}
{"smiles": "CCc1cccc(CC)c1NC(=O)c1ccc(N2C(=O)C3C4CC(c5ccccc5)C(C4)C3C2=O)cc1", "note": "(centres undefined)", "% Inhibition": 28, "Z score": -3.13}
{"smiles": "CCc1ccc(C2CC(C(=O)NCc3cccnc3)CN(C(=O)c3ccoc3)C2)cc1", "note": "(centres undefined)", "% Inhibition": -7, "Z score": 1}
{"smiles": "COc1ccc(-c2ccc(N3CCN(C(=O)CN(CCN4CCOCC4)C(=O)NC(C)C)CC3)nn2)cc1OC", "% Inhibition": -8, "Z score": 0.92}
{"smiles": "O=S(=O)(Nc1ccc2[nH]nnc2c1)c1cc(F)ccc1Cl", "% Inhibition": 3, "Z score": -0.36}
{"smiles": "COc1cc(-c2n[nH]cc2CN(CCN(C)C)C2CCCC2)cc(OC)c1OC", "% Inhibition": -4, "Z score": 0.6}
{"smiles": "CCc1n[nH]c(C(=O)Nc2nc(CC3CC3)ns2)c1Br", "% Inhibition": 1, "Z score": -0.13}
{"smiles": "Cc1cnc([C@H](C)NC(=O)N2CC(O)(c3cccc(Br)c3)C2)s1", "% Inhibition": -8, "Z score": 0.84}
{"smiles": "CCc1ccccc1NC(=O)Cn1c(=O)n(C(C)C)c(=O)c2sc(N3CCCCC3)nc21", "% Inhibition": -50, "Z score": 4.41}
{"smiles": "Cn1cccc(NC(=O)NC2CCC(C)(C)CC2)c1=O", "% Inhibition": -4, "Z score": 0.78}
{"smiles": "O=C(NC[C@H](O)c1ccoc1)C(=O)NCC(F)(F)F", "% Inhibition": 4, "Z score": -0.57}
{"smiles": "COc1cc(NC(=O)N2CCC[C@H]2c2cc(C)on2)cc(OC)c1OC", "% Inhibition": 9, "Z score": -1.7}
{"smiles": "N#Cc1cccc(-c2nccn2C2CCCC2)c1", "% Inhibition": 12, "Z score": -1.71}
{"smiles": "CC(C)NC(=O)C1CCCC(NC(=O)CC=Cc2cccc(F)c2)C1", "note": "(centres undefined)", "% Inhibition": -5, "Z score": 0.54}
{"smiles": "OCC1(c2ccccc2)CN(Cc2cccc(F)c2)C1", "% Inhibition": -9, "Z score": 1.15}
{"smiles": "COc1ccc(N2C(=O)CN(CCc3ccc(Cl)cc3)[C@H]3CS(=O)(=O)C[C@H]32)cc1", "% Inhibition": -1, "Z score": 0.16}
{"smiles": "NC(=O)c1cc(Cl)cc(Br)c1O", "% Inhibition": -18, "Z score": 2.77}
{"smiles": "Cc1cc(C(F)(F)F)nc2nn3c(-c4cnn(C)c4C)ccnc3c12", "% Inhibition": -25, "Z score": 3.62}
{"smiles": "CNC(=O)c1cccc(N2CCC[C@H](NC(=O)C(C)C)C2)n1", "% Inhibition": -2, "Z score": 0.22}
{"smiles": "CCC[C@H](C)c1cc(NC(=O)CNC(=O)C(C)(C)C)[nH]n1", "% Inhibition": 0, "Z score": 0.09}
{"smiles": "CCn1nncc1CNC(=O)Nc1c(C)csc1Cl", "% Inhibition": -11, "Z score": 2.4}
